The values below come from article PMC4336329 (PLoS ONE, 2015).

Hit rate of the full screen: of about 310,000 compounds, about 2,200 (0.71%) showed an effect of 50% or more. The effect is printed as a negative number. The list shows a part of the results.

human ether-à-go-go-related gene (hERG) potassium channel, sequence (Q12809 whole entry, looked up): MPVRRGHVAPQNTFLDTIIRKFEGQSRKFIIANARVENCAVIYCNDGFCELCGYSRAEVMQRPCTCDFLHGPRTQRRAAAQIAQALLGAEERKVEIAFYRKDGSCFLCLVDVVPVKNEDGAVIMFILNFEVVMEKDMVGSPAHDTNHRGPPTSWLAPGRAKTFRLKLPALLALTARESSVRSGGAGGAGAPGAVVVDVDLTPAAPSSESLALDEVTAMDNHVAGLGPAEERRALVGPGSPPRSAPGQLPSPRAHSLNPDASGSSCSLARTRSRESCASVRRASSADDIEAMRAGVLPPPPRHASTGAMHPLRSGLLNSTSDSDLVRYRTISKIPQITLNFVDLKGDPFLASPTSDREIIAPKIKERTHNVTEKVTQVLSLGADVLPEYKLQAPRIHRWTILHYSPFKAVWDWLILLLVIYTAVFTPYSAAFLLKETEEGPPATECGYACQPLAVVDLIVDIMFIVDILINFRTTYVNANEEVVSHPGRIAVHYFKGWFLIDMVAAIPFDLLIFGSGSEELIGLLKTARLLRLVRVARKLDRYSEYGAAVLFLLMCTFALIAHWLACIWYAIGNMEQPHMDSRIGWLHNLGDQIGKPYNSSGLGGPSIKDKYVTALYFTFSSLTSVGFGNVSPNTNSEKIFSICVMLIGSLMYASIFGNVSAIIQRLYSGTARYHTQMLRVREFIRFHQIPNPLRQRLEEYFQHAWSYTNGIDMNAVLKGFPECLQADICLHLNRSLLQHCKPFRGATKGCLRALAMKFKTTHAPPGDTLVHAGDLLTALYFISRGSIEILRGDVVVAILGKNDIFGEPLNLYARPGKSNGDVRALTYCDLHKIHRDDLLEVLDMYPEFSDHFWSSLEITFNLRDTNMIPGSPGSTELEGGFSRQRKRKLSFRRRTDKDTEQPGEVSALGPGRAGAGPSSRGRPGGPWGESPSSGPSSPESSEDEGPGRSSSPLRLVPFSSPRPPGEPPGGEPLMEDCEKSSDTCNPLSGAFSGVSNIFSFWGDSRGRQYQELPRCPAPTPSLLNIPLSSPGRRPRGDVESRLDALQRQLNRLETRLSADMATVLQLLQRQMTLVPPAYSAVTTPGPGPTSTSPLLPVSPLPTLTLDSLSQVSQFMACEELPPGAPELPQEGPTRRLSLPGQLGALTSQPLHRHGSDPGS

The assay addresses human ether-à-go-go-related gene (hERG) potassium channel (human, UniProt Q12809). The experiment in a line: primary screen, population patch clamp on CHO cells stably expressing hERG.
On to `COc1ccc(CNC(=O)C2CCN(c3nc(-c4ccccc4)nc4c3CCC4)CC2)cc1`, for which the “hERG current change (%, negative = inhibition) at 1uM” value came to 4.67%.
For `C=CCC1(CC=C)CCCN1C(=O)CC1C(=O)NCCN1Cc1cccc(OC)c1` (centres unmarked) the value was 6.95%.
For the compound `CCOC(=O)N1CCN(S(=O)(=O)c2c(C)[nH]c(=O)[nH]c2=O)CC1`, the “hERG current change (%, negative = inhibition) at 1uM” value is 7.3%.
Turning to `CC(=O)Nc1ccc(S(=O)(=O)NCc2ccc(C(=O)NCCN3CCCCCC3)cc2)cc1`, the “hERG current change (%, negative = inhibition) at 1uM” value was 12.5%.
For `C[C@H](NC(=O)Nc1cccc(C(F)(F)F)c1)C(=O)O` the value was 2.04%.
For `Nc1ccc2[nH]ncc2c1` the value was 15.6%.
Turning to `COCc1cc(C)nc(OCC(=O)N/N=C/c2ccccc2O)c1C#N`, the “hERG current change (%, negative = inhibition) at 1uM” value is 16.6%.
In the case of `Clc1ccc(CN2CCCCCC2)cc1Cl` it was 6%; in that of `CCOC(=O)C1CCN(S(=O)(=O)c2ccc(C(C)(C)C)cc2)CC1`, 20%.
In the case of `COCCCC1CCN(Cc2nc(-c3ccccc3)no2)CC1` it was -2.14%.
Turning to `Cc1cccc(OCC(=O)NC(Cc2c[nH]c3ccccc23)C(=O)O)c1C` (centres unmarked), the “hERG current change (%, negative = inhibition) at 1uM” value is given as 13.6%.
For `CCN1C(=O)c2ccccc2S(=O)(=O)c2ccc(C(=O)NC(C)C)cc21` the value was 5.38%; for `O=C(NN=C1CCCCCC1)c1c[nH]c2ccccc12`, 12.9%.
In the case of `[Br-].c1ccc2c(C[n+]3csc4ccccc43)cccc2c1` it was 11.6%; in that of `CC(C)Oc1ccc(CCc2nnc(SCC(=O)O)n2-c2ccccc2)cc1`, 10%; in that of `CCc1cc(C(=O)Cc2ccccn2)c(O)cc1O`, 10.3%.
For `CCS(=O)(=O)N1CCN(c2ccc(Cl)cc2[N+](=O)[O-])CC1`, the “hERG current change (%, negative = inhibition) at 1uM” value is on record as -0.234%.
With `CCOc1ccc(-c2nc(CSc3nnc(N)s3)cs2)cc1OC`, the “hERG current change (%, negative = inhibition) at 1uM” value stood at 2.61%.
In the case of `COc1ccc(C(=O)Cc2cnn(-c3ccccc3)c2)c(O)c1` it was 12.2%; in that of `Cc1nnsc1-c1onc(C)c1C(=O)Nc1cc(Cl)cc(Cl)c1`, 16.9%; in that of `NC(=S)n1[nH]c(-c2ccccc2)c(N=Nc2ccccc2C(=O)N2CCOCC2)c1=O`, 4.27%.
On to `O=C(CC1C(=O)NCCN1Cc1ccccc1C(F)(F)F)NC1CCCCCC1` (centres unmarked), for which the “hERG current change (%, negative = inhibition) at 1uM” value came out at 16.1%.
Turning to `CCCC(C)C(=O)Nc1ccc(S(=O)(=O)Nc2nccs2)cc1` (centres unmarked), the “hERG current change (%, negative = inhibition) at 1uM” value amounted to 14.9%.
Take `C/C(=N\NC(=O)CSCc1ccccc1Cl)c1cc(O)ccc1O`: the “hERG current change (%, negative = inhibition) at 1uM” value worked out at 5.96%.
For `CCN(CC(=O)Nc1ccccc1OC)C(=O)c1ccccc1Sc1ccccc1C#N` the value was 11.3%; for `COc1ccc(S(=O)(=O)Nc2cc3c4c(c2)CCC(=O)N4CCC3)cc1C`, 5.07%.
